# Reference: PubChem BioAssay AID504845 (National Center for Advancing Translational Sciences (NCATS), 2011)
# About 150 (0.038%) of roughly 390,000 compounds were called active. The inconclusive results got no clear call from the source; some entries with a clear call stand among them for comparison. Calls come from the whole dose curve; as a rule, active = well fitted inhibition curve with a large enough effect; inconclusive = small, poorly fitted or top-dose-only effect; inactive = no such curve, though single readings can be large or run the other way. Potencies of inconclusive entries are doubtful fits and often do not repeat.
# Target: Regulator of G-protein signaling 4 (Homo sapiens) (UniProt P49798)
# Assay: Inhibitors of Regulator of G Protein Signaling (RGS) 4: qHTS; note: nearly all actives have a fitted effect of over 75% in size
# Conditions: Transcreener GDP fluorescence polarization, RGS4-accelerated GTP hydrolysis; series mostly up to 114 µM; activity change, negative = inhibition: at the top concentration
# Procedure, shortened: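 MLSMR compounds (23 nl, pin-transferred) preincubated 10 min at room temperature with a 500nM (2x) first reagent, then RGS4 at 900nM (2x) plus Transcreener GDP mix added; fluorescence polarization (620/688 nm) read before and after 90 min at 30 °C.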
# % is set by controls: 0 for no effect and ±100 for the full control effect; potency is the fitted concentration of half-maximal effect; tags give direction and shape of the fitted curve.
# Chain of UniProt P49798 (P49798 whole entry, looked up): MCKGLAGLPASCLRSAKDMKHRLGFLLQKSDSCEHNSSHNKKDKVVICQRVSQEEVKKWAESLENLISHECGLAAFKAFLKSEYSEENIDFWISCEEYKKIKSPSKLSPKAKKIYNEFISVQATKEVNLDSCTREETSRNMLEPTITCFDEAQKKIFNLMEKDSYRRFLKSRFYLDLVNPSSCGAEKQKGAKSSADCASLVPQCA
Structure (SMILES),"activity change, negative = inhibition",Potency
O=C(CNCC1CCCO1)Nc1ccccc1N1CCCCCC1 (stereo unspecified),inactive: 7.09% [at 56.9 µM],–
N#CC1=C(N)C(C#N)(C#N)C(c2cccnc2)C2CN(C(=O)OCc3ccccc3)CC=C12 (stereo unspecified),–,"inconclusive: 20 µM [inhibitor, full curve, poor fit]"
CC(C)(C)NC(=O)C(=O)NCCC1=CCCCC1,–,"inconclusive: 50.1 µM [inhibitor, partial curve, poor fit]"
COCCn1c(=NC(=O)CCS(=O)(=O)c2ccccc2)sc2cc(F)ccc21,–,"inconclusive: 100 µM [inhibitor, partial curve, poor fit]"
CCOP1(=O)OCC2OC(n3cnc4c(N)ncnc43)C(O)C2O1 (stereo unspecified),inactive: 9.74%,–
COc1ccc(C(C[N+](=O)[O-])c2c(-c3ccccc3)cc3ccccn23)c(OC)c1 (stereo unspecified),–,"inconclusive: 79.4 µM [inhibitor, partial curve, poor fit]"
CNC(=O)c1c(C)[nH]c(=S)c(C#N)c1-c1ccco1,–,"inconclusive: 39.8 µM [inhibitor, partial curve, poor fit]"
O=S(=O)(NNc1ccc(F)cc1F)c1cccc(Cl)c1,–,"inconclusive: 17.8 µM [inhibitor, full curve, poor fit]"
COc1ccccc1NC(=O)CCC(=O)c1ccc(-c2ccccc2)cc1,–,"inconclusive: 35.5 µM [inhibitor, full curve, poor fit]"
CNC(=O)[C@H]1O[C@@H](n2cnc3c(NCc4ccc(I)cc4)nc(Cl)nc32)[C@H](O)[C@@H]1O,–,"inconclusive: 0.751 µM [inhibitor, full curve, poor fit]"
O=C(CN1CCC(n2nnc3cc(F)ccc32)CC1)NC1CCCCC1,inactive: -27.2%,–
O=C(O)C1Nc2c(Cl)cc(Cl)cc2C2C=CCC12 (stereo unspecified),–,"inconclusive: 70.8 µM [inhibitor, partial curve, poor fit]"
O=C(OCC(=O)N1N=C(c2ccc(Cl)cc2)CC1c1ccco1)c1cncc(Br)c1 (stereo unspecified),–,"inconclusive: 17.8 µM [inhibitor, full curve, poor fit]"
Cc1ccc(S(=O)(=O)N2CCN(c3ccnc4cc(Cl)ccc34)CC2)cc1,inactive: 3.76%,–
CC(C)(C)c1ccc(S(=O)(=O)c2cnc(SCC(=O)Nc3ccc4c(c3)OCCO4)[nH]c2=O)cc1,inactive: 7%,–
Cc1ccc(/C=N/n2c(C)nnc2C)o1,–,"inconclusive: 39.8 µM [inhibitor, partial curve, poor fit]"
Oc1ccc(-c2ccccc2)cc1CN1CCCCCC1,inactive: -10.2% [at 56.9 µM],–
Cc1onc(-c2ccccc2)c1C(=O)OCCOc1ccccc1F,–,"inconclusive: 70.8 µM [inhibitor, partial curve, poor fit]"
CN1CCc2c(sc(NC(=O)c3ccc(S(=O)(=O)N4CCCCCC4)cc3)c2C(N)=O)C1,–,"inconclusive: 20 µM [inhibitor, full curve, poor fit]"
CCOc1ccc(-n2c(N)c(C(=O)NCc3ccco3)sc2=S)cc1,–,"inconclusive: 50.1 µM [inhibitor, partial curve, poor fit]"
Cc1ccc(NS(=O)(=O)c2c(C(=O)N3CCCC3)c(C)n(C)c2C)cc1,inactive: 15.1% [at 11.4 µM],–
COc1ccc(-c2nc(CN3CCC(C(=O)NCc4ccc(C)cc4)CC3)c(C)o2)cc1OC,inactive: -6.53%,–

Structure (SMILES),"activity change, negative = inhibition",Potency
Cc1cc(C)c(S(=O)(=O)NCCn2c(C)cc3ccccc32)c(C)c1,inactive: -1.26%,–
Cc1ccc(C)c(S(=O)(=O)N2CCN(C(=O)/C=C/c3ccco3)CC2)c1,–,"inconclusive: 50.1 µM [inhibitor, partial curve, poor fit]"
O=C(NCc1cccnc1)/C(=C/c1ccc(-c2ccc(Cl)cc2)o1)S(=O)(=O)c1ccccc1,–,"inconclusive: 56.2 µM [inhibitor, partial curve, poor fit]"
CCCC(=O)Nc1cccc(NC(=S)NC(=O)C(C)Oc2ccc(Cl)cc2Cl)c1 (stereo unspecified),–,"inconclusive: 89.1 µM [inhibitor, single point]"
CCC1CCCCN1CCCNC(=O)C(C)n1nc(C)c2sc3ccccc3c2c1=O (stereo unspecified),inactive: -7.24%,–
Nc1c(C(=O)C2CC2)sc2nc(-c3cccs3)cc(C(F)(F)F)c12,inactive: -35.6%,–
CC(OC(=O)CSc1ccc([N+](=O)[O-])cc1)C(=O)NCc1ccccc1 (stereo unspecified),–,"inconclusive: 31.6 µM [inhibitor, full curve, poor fit]"
CC(=O)Nc1ccc(N2CCC(C)CC2)c([N+](=O)[O-])c1,inactive: -9.24%,–
CN(C)c1nc(NCc2ccccc2)nc(N/N=C/c2cccc(Br)c2)n1,–,"inconclusive: 44.7 µM [inhibitor, partial curve, poor fit]"
CCCn1c(SCC(=O)N2CCc3ccccc3C2)nc(O)cc1=O,inactive: -2.13%,–
CC(=O)Nc1cc(C(C)(C)C)c(O)c(C(C)(C)C)c1,–,"inconclusive: 89.1 µM [inhibitor, single point]"
COc1ccc(OC)c(-n2c(=S)[nH]c3c(sc(=S)n3-c3ccccc3C)c2=O)c1,–,"inconclusive: 39.8 µM [inhibitor, partial curve, poor fit]"
O=C(NNC(=S)Nc1ccccc1Cl)c1ccccc1Cl,inactive: -21.5%,–
O=C(Nc1sc2c(c1C(=O)NCc1ccccc1)CCCC2)c1cc(=O)c2ccccc2o1,–,"inconclusive: 31.6 µM [inhibitor, full curve, poor fit]"
COCCCNC(=O)/C(C#N)=C/c1ccc(F)cc1,inactive: -22.5%,–
CC(=O)N1CCN(c2ccccc2NC(=O)COc2cc(C)cc(C)c2)CC1,–,"inconclusive: 79.4 µM [inhibitor, single point]"
CCOC(=O)c1c(-c2ccc(C)cc2)csc1NC(=O)c1cc(=O)c2cc(C)cc(C)c2o1,–,"inconclusive: 50.1 µM [inhibitor, partial curve, poor fit]"
O=C(O)CN1C(=O)/C(=C/c2ccc(SCc3ccccc3)o2)SC1=S,–,"inconclusive: 56.2 µM [inhibitor, partial curve, poor fit]"
COCCN(C(=O)c1ccc(C)o1)c1c(N)n(CC(C)C)c(=O)[nH]c1=O,–,"inconclusive: 89.1 µM [inhibitor, single point]"
O=C(COc1ccccc1F)Nc1c(C(=O)Nc2cccc(F)c2)oc2ccccc12,inactive: 7.55%,–
CC(=O)c1cc(NC(=O)c2cccc(C(F)(F)F)c2)c(=O)oc1C,–,"inconclusive: 50.1 µM [inhibitor, partial curve, poor fit]"
CCCn1cc(S(=O)(=O)c2ccc(OC)cc2)c(=O)c2cc(F)c(N3CCCC(C)C3)cc21 (stereo unspecified),inactive: 15.1%,–

Structure (SMILES),"activity change, negative = inhibition",Potency
Cc1nc(SCC(=O)c2ccccc2)n[nH]1,–,"inconclusive: 50.1 µM [inhibitor, partial curve, poor fit]"
Cc1cccc(-c2noc(Cc3ccc(Cl)cc3)n2)c1,–,"inconclusive: 79.4 µM [inhibitor, partial curve, poor fit]"
COc1cc(C(c2c(C)[nH][nH]c2=O)c2c(C)[nH][nH]c2=O)ccc1OC(C)C,–,"inconclusive: 56.2 µM [inhibitor, partial curve, poor fit]"
Fc1ccccc1NC(=S)Nn1cnnc1,–,"inconclusive: 50.1 µM [inhibitor, partial curve, poor fit]"
Cc1ccc(NC2=C(Cl)C(=O)OC2NC(=O)c2ccccc2)cc1 (stereo unspecified),inactive: 9.19% [at 56.9 µM],–
O=C(NCCN1CCCC1=O)C1CCC(=O)N(CCc2cccc(F)c2)C1 (stereo unspecified),–,"inconclusive: 100 µM [inhibitor, single point]"
CC(=O)NNC(=O)c1sc(=S)n2c1[nH]c(=O)c1sccc12,–,"inconclusive: 50.1 µM [inhibitor, partial curve, poor fit]"
O=C(NCCNC(=O)c1ccccc1)c1ccccc1,inactive: -0.174%,–
CC(=O)N1CCCc2cc(S(=O)(=O)N3CCC(C(=O)NCc4ccccc4)CC3)ccc21,inactive: -1.25%,–
O=C(NNC(=S)NC(=O)c1cccs1)c1ccc(O)cc1,–,"inconclusive: 56.2 µM [inhibitor, partial curve, poor fit]"
Cc1ccc(/C=C/C(=O)Nc2cccc3ncccc23)o1,–,"inconclusive: 17.8 µM [inhibitor, full curve, poor fit]"
Nc1nc(-c2ccccc2)c(CCCOc2ccc([N+](=O)[O-])cc2)c(=O)[nH]1,–,"inconclusive: 79.4 µM [inhibitor, single point]"
O=C(OCCOCCN=C1NS(=O)(=O)c2ccccc21)c1ccccc1,inactive: 16.1%,–
N/C(=N\OC(=O)c1ccc2c(c1)OCO2)c1cccnc1,inactive: -8.52%,–
NCCNC(=O)Cc1ccc(NC(=O)Cc2ccc(Nc3ncnc4c3ncn4[C@@H]3O[C@H](CO)[C@@H](O)[C@H]3O)cc2)cc1,–,"inconclusive: 50.1 µM [inhibitor, partial curve, poor fit]"
CC(C)C(=O)Nc1nc(-c2ccc([N+](=O)[O-])cc2)cs1,inactive: -12.7%,–
C[C@]12CC[C@H]3[C@@H](CCC4=CC(=O)CC[C@@]43C)[C@@H]1CC[C@@H]2C(=O)CO,inactive: -38.7%,–
Cc1ccc(-n2ncc3c(N4CCCC4)ncnc32)c(C)c1,inactive: -7.04%,–
COc1ccccc1OCCOc1ccc(/C=C2\C(=N)N3N=C(S(C)(=O)=O)SC3=NC2=O)cc1,–,"inconclusive: 28.2 µM [inhibitor, full curve, poor fit]"
O=C(/C=C/c1ccco1)Nc1nc(-c2ccccn2)cs1,–,"inconclusive: 44.7 µM [inhibitor, partial curve, poor fit]"
c1ccc(-n2nnc3c(N4CCOCC4)ncnc32)cc1,–,"inconclusive: 79.4 µM [inhibitor, partial curve, poor fit]"
CCOC(=O)C1CCN(C(=O)c2ccccc2)C(CC)C1=O (stereo unspecified),–,"inconclusive: 89.1 µM [inhibitor, single point]"
